The target of this experiment is full-length ZO1 with C-terminal mEGFP (UniProt Q07157 1-1748). Put plainly: client partitioning into phase-separated droplets.

These results are taken from publication doi:10.1101/589580 (bioRxiv, 2019).

Sequence of UniProt Q07157 (Q07157 whole entry): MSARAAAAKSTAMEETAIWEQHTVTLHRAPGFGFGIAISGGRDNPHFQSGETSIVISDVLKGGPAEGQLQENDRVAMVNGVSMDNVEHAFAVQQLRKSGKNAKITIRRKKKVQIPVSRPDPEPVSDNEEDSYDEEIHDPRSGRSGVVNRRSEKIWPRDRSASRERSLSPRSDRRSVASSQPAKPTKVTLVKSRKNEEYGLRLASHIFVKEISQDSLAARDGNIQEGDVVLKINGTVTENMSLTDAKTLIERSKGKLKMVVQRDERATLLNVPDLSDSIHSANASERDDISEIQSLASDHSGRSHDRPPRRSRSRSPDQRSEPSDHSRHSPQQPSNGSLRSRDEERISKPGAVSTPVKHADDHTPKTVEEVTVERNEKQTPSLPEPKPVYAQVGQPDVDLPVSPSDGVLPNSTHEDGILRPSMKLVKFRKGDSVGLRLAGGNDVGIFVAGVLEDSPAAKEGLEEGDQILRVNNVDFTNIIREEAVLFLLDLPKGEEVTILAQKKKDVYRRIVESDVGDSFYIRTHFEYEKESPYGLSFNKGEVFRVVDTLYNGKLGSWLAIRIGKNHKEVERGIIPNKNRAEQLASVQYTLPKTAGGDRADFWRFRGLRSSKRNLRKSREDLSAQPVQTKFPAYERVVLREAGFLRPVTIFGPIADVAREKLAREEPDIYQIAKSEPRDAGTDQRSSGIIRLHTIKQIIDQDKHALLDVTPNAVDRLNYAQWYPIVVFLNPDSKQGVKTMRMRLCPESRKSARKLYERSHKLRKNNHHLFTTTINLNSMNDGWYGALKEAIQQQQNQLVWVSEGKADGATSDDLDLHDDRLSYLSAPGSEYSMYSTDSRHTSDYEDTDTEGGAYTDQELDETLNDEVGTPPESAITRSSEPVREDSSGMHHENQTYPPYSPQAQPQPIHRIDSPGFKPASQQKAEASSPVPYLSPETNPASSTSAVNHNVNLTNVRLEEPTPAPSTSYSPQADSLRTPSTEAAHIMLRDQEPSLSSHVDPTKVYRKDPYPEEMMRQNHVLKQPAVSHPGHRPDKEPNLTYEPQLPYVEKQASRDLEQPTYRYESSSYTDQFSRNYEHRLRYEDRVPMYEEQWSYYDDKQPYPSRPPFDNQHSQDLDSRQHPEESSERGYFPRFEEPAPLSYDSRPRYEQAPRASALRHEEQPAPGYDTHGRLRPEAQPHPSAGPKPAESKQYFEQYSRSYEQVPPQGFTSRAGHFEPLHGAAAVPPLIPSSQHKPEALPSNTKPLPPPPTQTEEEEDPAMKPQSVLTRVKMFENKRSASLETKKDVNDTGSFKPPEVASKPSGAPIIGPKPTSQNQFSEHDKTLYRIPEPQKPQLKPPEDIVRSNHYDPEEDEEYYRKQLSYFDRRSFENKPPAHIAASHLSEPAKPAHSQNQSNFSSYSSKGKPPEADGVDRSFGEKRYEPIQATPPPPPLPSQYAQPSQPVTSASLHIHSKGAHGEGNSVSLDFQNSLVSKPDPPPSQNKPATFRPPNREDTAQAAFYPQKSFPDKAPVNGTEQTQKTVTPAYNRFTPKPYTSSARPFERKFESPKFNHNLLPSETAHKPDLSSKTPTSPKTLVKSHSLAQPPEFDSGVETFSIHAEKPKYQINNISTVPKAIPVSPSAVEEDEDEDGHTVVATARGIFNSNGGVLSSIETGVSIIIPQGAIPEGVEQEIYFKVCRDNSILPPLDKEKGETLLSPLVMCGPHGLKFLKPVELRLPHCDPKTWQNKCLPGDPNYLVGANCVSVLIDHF

B1: transcription factor YAP (natural protein)
chain: not shown
Take B1: the “partitioning (client fluorescence inside/outside ZO1 droplets)” value came to 9 fold.
